Experimental data reported in ChEMBL document CHEMBL1157539, “Thousands of chemical starting points for antimalarial lead identification” (Nature, 2010).
Whole data set: some 13,000 compounds, median “IFI” near 4, cut for the highest 2% near 17. The list shows a part of the results.

Test: GSK_TCMDC: Inhibition Frequency Index (IFI). The number of non-kinase HTS assays where a compound showed > 50 % inhibition, expressed as a percentage of the number of such assays in which the compound was tested (-0 is zero)
Type: functional

| SMILES | IFI |
| --- | --- |
| COc1cc(-c2nnc(SCC(=O)Nc3cc(C)on3)n2C)cc(OC)c1O | 1.41% |
| O=C(CCCCCNC(=O)c1ccc(O)c(-c2ccc(Cl)c(Cl)c2)c1)NCCN1CCCCC1 | 0.74% |
| Cc1ccc(CNC(=O)[C@H](CC(C)C)Nc2cc(C)nc(Nc3ccccc3)n2)cc1 | 5% |
| CCOc1c(CNCCCNc2nc3ccccc3[nH]2)cc(I)cc1OC | 5.76% |
| Cc1noc(C)c1-c1cccc(CNCc2cccc(-c3cccc(-c4nc5ccccc5[nH]4)c3)c2)c1 | 3.92% |
| O=C(/C=C/c1ccc(Cl)c(Cl)c1)NCCCCCN1CCC(NC(=O)c2cccc(Cl)c2)CC1 | 2.38% |
| C#CCOc1ccc(N2C(N)=NC(N)=NC2(C)C)cc1 | 2.27% |
| Cc1ccc(CNC(=O)c2cnc(N3CCN(c4ccncc4)CC3)c(Cl)c2)cc1 | 11.9% |
| CCOc1ccc2c(=NN=Cc3ccccn3)cc(C)[nH]c2c1 | 1.41% |
| CCCCC(=O)Nc1cc(=O)[nH]c2nc(-c3ccc(Cl)cc3)nn12 | 0% |
| Cn1c(NC(=O)C2CCCN(C(=O)c3ccc(O)c(-c4ccc(Cl)c(Cl)c4)c3)C2)nc2ccccc21 (configuration not stated) | 1.5% |
| CN(C)Cc1ccc(-c2cc3c(-c4ccc(CN(C)C)cc4)ccnc3[nH]2)cc1 | 0% |
| CCCc1ccc(N2C(N)=NC(N)=NC2(C)C)cc1 | 1.41% |
| O=C(O)c1ccc(OCOCOc2ccc(C(=O)O)c(O)c2)cc1O | -0% |
| CC(C)Sc1nc2c(c(=O)n1Cc1ccco1)C1(CCCCC1)Cc1ccccc1-2 | -0% |
| CCOc1ccc(N(CC)S(=O)(=O)c2cc(Br)cc3c2N(C(=O)C2CC2)CC3)cc1 | 1.41% |
| Cc1ccc(CNC(=O)[C@H](CC(C)C)Nc2cc(C)nc(NCc3ccccc3C)n2)cc1 | 7.32% |
| Cc1cc(N2CCCC2)nc(Nc2ccc(NC(=O)c3ccccc3C)cc2)n1 | 10.8% |
| O=C(NCc1ccc(Cl)cc1)c1ccc(C(=O)NCC2CCCN2CC2CCCCC2)cc1 (configuration not stated) | 6.09% |

| SMILES | IFI |
| --- | --- |
| Cc1cc(C)c2oc(-c3cccc(NC(=O)c4ccc([N+](=O)[O-])o4)c3C)nc2c1 | 4.38% |
| Cc1cccc2nc(-c3ccc(-c4ccc(CNCc5ccccc5)cc4)s3)[nH]c12 | 9.62% |
| COc1ccc2nc3cc(Cl)ccc3c(Nc3ccc(O)c(CN4CC5CCC(CC5)C4)c3)c2c1 | 6.43% |
| CC(C)CNCc1ccc(-c2cccc(CN(CCN(C)C)C(=O)NCCc3ccccc3)c2)cc1 | 7.19% |
| Cc1cccc2nc(-c3ccc(-c4cccc(CN5CCC(N)C5)c4)s3)[nH]c12 (configuration not stated) | 5.71% |
| COc1cccc(C(=O)NCCOc2ccccc2)c1Oc1ccccc1 | 0.71% |
| Cc1c(S(=O)(=O)Nc2cccc(CCN3CCCCC3CCN3CCCC3)c2)sc2ccc(Cl)cc12 (configuration not stated) | 12.5% |
| Cc1cc(N)nc2ccc(-c3ccc(CCN)cc3)cc12 | 4.17% |
| CCN(CC)CCN(Cc1ccc(-c2ccc(Br)cc2)cc1)C(=O)Cn1c(CCc2cccc(F)c2F)nc(=O)c2ccccc21 | 4.32% |
| CC(=O)N1N=C(c2cccs2)Sc2c1nc(-c1ccc(Cl)cc1)n2C(C)=O | 8.16% |
| CC(=O)N(C)/N=C/[C@H](CCc1ccccc1)NC(=O)[C@H](CC(C)C)NC(=O)c1cccc(OCCN2CCOCC2)c1 | 2.75% |
| O=C(Nc1cccc(-c2csc(-c3ccccc3)n2)c1)c1cccs1 | 4.35% |
| Cc1nc2ccc(NC(=O)c3cc(S(=O)(=O)N(C)C)ccc3Cl)cc2s1 | 3.39% |
| CCc1cn(C)c2c(N3CCCC3=O)cc(C(=O)N[C@@H](Cc3ccccc3)[C@H](O)CNC(C)(C)CCCC(C)C)cc12 | 3.68% |
| O=C(/C=C/c1ccc(Cl)c(Cl)c1)NCCCCCN1CCC(NC(=O)c2ccc(F)c(F)c2)CC1 | 6.35% |
| O=[N+]([O-])c1cccc(Nc2nccc(-c3cnn4ncccc34)n2)c1 | 11.1% |
| O=[N+]([O-])c1cc(/C=N/Nc2nc3nonc3nc2Nc2ccc(F)cc2)c(Cl)cc1Cl | 4.58% |
| O=C(Nc1cccc(-c2ccc(-c3nc4cc(C(F)(F)F)ccc4[nH]3)s2)c1)c1ccncc1 | 6.48% |
| CCc1cc(I)c2c(c1)C(NCCCNc1cc(=O)c3ccccc3[nH]1)CCN2 (configuration not stated) | 3.62% |

| SMILES | IFI |
| --- | --- |
| COc1cc(Cc2cnc(N)nc2N)cc(OCCCCCC(N)=O)c1OC | 0.74% |
| O=C(N[C@@H](Cc1ccccc1)C(=O)NC1CCCc2ccccc21)c1ccc(O)c(-c2ccc(Cl)c(Cl)c2)c1 (some centres not stated) | 2.22% |
| N#Cc1cccc(NC(=O)Nc2cccc(-c3cccc(-c4nc5cc(F)ccc5[nH]4)c3)c2)c1 | 9.09% |
| COc1ccc(-c2ccc(NC(=O)c3ccc(C#N)cc3)cc2)cc1CN1CCC(O)CC1 | 2.97% |
| Cc1cccc2nc(-c3ccc(-c4ccc(CNCc5ccccc5)cc4)cc3)[nH]c12 | 3.88% |
| O=C(Nc1cc(C(F)(F)F)cc(C(F)(F)F)c1)Nc1ccc(Cl)c(Cl)c1 | 19.1% |
| COCCCn1c(=N)c(C(=O)NCCc2ccc(OC)cc2)cc2c(=O)n3cccc(C)c3nc21 | 1.72% |
| Cc1cccc2nc(-c3ccc(-c4cccc(NC(=O)Nc5ccc(Cl)c(Cl)c5)c4)s3)[nH]c12 | 5% |
| CC(C)c1ccc(Nc2nc(NCCc3c[nH]cn3)nc(NCc3ccccc3)n2)cc1 | 1.5% |
| O=C(CNC1=NCCN1)Nc1ccc(NC(=O)Nc2ccc(NC(=O)CNC3=NCCN3)cc2)cc1 | 1.54% |
| c1ccc2c(c1)cc(CNCCCN1CCN(CCCNCc3cc4ccccc4c4ccccc34)CC1)c1ccccc12 | 19.4% |
| CC(Cc1ccc(C(=O)N2CCN(C(=O)c3ccc(CC(C)NCCc4cccc(Cl)c4)cc3)CC2)cc1)NCCc1cccc(Cl)c1 (configuration not stated) | 9.29% |
| COc1cc(C2CCN(CCCCNC(=O)c3ccc(NC(=O)c4cc(C(F)(F)F)cc(C(F)(F)F)c4)cc3)CC2)ccc1OC(C)C | 7.83% |
| Oc1cccc(CCNCCCCCCNCCc2ccc(Cl)cc2)c1 | 2.94% |
| CCOc1cccc(C(=O)Nc2nonc2-c2ccc(OC)c(OC)c2)c1 | -0% |
| COc1ccc(-n2ccnc2SCC(=O)Nc2cccc(C(F)(F)F)c2)c(OC)c1 | 1.53% |
| O=C(CCc1c[nH]cn1)Nc1ccc(-c2ccc(-c3nc4cc(F)ccc4[nH]3)cc2)cc1 | 6.48% |
| CNCCNCc1cccc(-c2cccc(-c3nc4cccc(C)c4[nH]3)c2)c1 | 7.84% |
| CC(=O)N1CCN(c2ccc(NC(=O)c3oc(-c4ccccc4)nc3C(F)(F)F)cn2)CC1 | 0% |
